Assay results published in PubChem BioAssay AID1159614 (National Center for Advancing Translational Sciences (NCATS), 2016).
Out of some 45,000 compounds screened, about 65 (0.1%) were called active. Calls come from the whole dose curve; as a rule, active = well fitted activation curve with a large enough effect; inconclusive = small, poorly fitted or top-dose-only effect; inactive = no such curve, though single readings can be large or run the other way. This is one part of the list.

What follows are molecules tested against Galactocerebrosidase (Homo sapiens) (UniProt P54803) (assay: A Novel Cell-Based Assay to Identify Small Molecules for B -Galactocerebrosidase). Conditions: 145M-Twi-hGALC-G270D cells (Twitcher mouse brain line with human GALC G270D), HMU-beta-Gal fluorescence, 48 h; series mostly up to 57.5 µM; activation: at the top concentration.
Outline: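 Brain-derived Twitcher mouse 145M-Twi cells stably expressing human GALC-G270D or wild-type GALC, treated live, then residual GALC activity read by fluorescence of HMU-b-Gal substrate (0.1 mM final) in citrate-phosphate buffer pH 5.2 with sodium taurocholate. Signal increase indicates enhancement.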
Note: 0% is about no effect; nearly all actives have a fitted effect of over 65% in size.

Sequence of UniProt P54803 (P54803 whole entry, looked up): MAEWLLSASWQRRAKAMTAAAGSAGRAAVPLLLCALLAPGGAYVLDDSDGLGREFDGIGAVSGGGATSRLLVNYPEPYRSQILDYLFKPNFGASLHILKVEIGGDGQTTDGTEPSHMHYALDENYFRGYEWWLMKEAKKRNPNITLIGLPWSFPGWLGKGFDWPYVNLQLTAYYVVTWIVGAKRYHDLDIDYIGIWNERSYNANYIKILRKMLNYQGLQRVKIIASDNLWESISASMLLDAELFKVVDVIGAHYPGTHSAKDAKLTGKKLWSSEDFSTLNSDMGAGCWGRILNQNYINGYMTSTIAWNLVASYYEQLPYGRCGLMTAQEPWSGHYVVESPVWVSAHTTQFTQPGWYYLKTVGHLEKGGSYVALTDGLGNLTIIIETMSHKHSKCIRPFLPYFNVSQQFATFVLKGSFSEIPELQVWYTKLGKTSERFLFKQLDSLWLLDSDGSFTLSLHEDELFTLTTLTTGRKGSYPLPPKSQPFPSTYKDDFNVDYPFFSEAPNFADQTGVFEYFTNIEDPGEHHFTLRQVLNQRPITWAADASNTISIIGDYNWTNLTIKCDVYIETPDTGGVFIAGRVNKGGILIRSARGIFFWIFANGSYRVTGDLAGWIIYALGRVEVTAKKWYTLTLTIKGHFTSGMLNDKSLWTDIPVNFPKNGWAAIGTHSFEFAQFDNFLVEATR

activation, inactive:
COc1ccc(C2C(C(=O)Nc3ccc(Cl)cc3)=C(C)Nc3nc(SCc4cccc(C)c4)nn32)cc1OC (stereo not given) 2.45%, COCCCN1C(=O)c2ccccc2CC1(C)C(=O)NC1CCCCC1 (stereo not given) -6.59%, Cc1cccc(Cn2c(SCc3ccc(C(=O)NCc4ccccc4F)cc3)nc3ccncc32)c1 -9.34%, Cc1ccc(NC(=O)Cn2c(=O)oc3cc(S(=O)(=O)N4CCCCC4)ccc32)c(Cl)c1 -39.1%, c1ccc(-c2noc(-c3cccnc3NCc3ccco3)n2)cc1 -0.894%, COCCNC(=O)Cn1c(=O)n(CCCCCC(=O)NCc2ccccc2Cl)c(=O)c2sccc21 -23%, COc1ccc(CN(C(=O)c2cc3ccccc3oc2=O)C2CCS(=O)(=O)C2)cc1OC (stereo not given) -20.8%, CC(C)(C)C1CCc2c(sc3nc(-c4cc5ccccc5oc4=O)[nH]c(=O)c23)C1 (stereo not given) -15.8%, Cc1c(-c2cccc(NC(=O)Nc3ccc(Cl)cc3)c2)nc2ncccn12 -10.6%, COc1ccccc1-c1noc(-c2ccc(NC3CCCCC3)c([N+](=O)[O-])c2)n1 4.2%, CC1CCCCN1C(=O)Cn1ncc2c3ccccc3n(Cc3ccccc3F)c2c1=O (stereo not given) -10.6%, CCN(CC)CCCNC(=O)CCCn1ncn2c(cc3occc32)c1=O -3.72%, O=c1c(=O)n(Cc2ccc(Cl)cc2)ccn1Cc1ccc(F)cc1 19.3%, COCCCNC(=O)c1cnc2sc(N3CCCCCC3)nn2c1=O -4.4%, Cc1ccc2c(c1)-c1c(cnn1CC(=O)N1CCN(c3ccccc3F)CC1)CO2 -8.69%, CCCCN(CCCNC(=O)CN1N=C(c2ccc(C)cc2)CCC1=O)c1ccccc1 -2.17%, COc1cccc(NC(=O)CCc2nc3c(C)nn(-c4ccc(C)cc4)c3n(C)c2=O)c1 -18.2%, CCN(CC)C(=O)CSc1nc2ccsc2c(=O)n1Cc1ccccc1Cl -35.5%, CCc1nc2cccnc2n1-c1ccc(CC(=O)Nc2c(C)cccc2C)cc1 -4.07%, Cc1cc(C)n2c(Nc3ccc(C(C)C)cc3)c(-c3ccsc3)nc2n1 -10.4%, Cc1oc2ncn(CC(C)C)c(=O)c2c1C(=O)NCCc1ccccc1 -34.7%, COc1cccc(OCC(=O)NCCS(=O)(=O)N2CCN(c3ccccc3F)CC2)c1 -4.51%, COc1ccc(-c2cn3cccnc3n2)cc1NC(=O)Cc1ccccc1 -18.4%, Cc1ccc(-c2nc(CNC(=O)Nc3ccccc3)c(C)o2)cc1 0.629%, CCOc1ccc(CNC(=O)CC(C)n2nc(C)cc2C)cc1OC (stereo not given) -25.2%, Cc1ccc2c(c1)c1c(c(=O)n(-c3ccccc3)c(=O)n1CC(=O)c1ccc(F)cc1)n2C -13.3%, CC1=C(C(=O)Nc2ccc(C)cc2C)C(c2ccc(C(=O)O)cc2)n2nc(SCc3ccccc3)nc2N1 (stereo not given) -6.5%, COc1ccc(OC)c(CNC(=O)c2cnc3c(C)cccn3c2=O)c1 -15.2%, CCc1cccc(NC(=O)Cn2c(=O)n(-c3cccc(Cl)c3)c(=O)c3c2c2cc(C)ccc2n3C)c1 3.51%, Cn1c(SCC(=O)N2CCCc3ccccc32)ncc(C(=O)Nc2ccccc2)c1=O -35.4%, CCc1nn2c(=O)cc(COC(=O)c3ccc(NC(=O)COc4ccc(C)cc4)cc3)nc2s1 -13.2%, Cc1ccc(NC(=O)c2ccc(CN3CC(=O)N4CCCCC4C3=O)cc2)cc1 (stereo not given) -18.4%, Cc1ccccc1C(=O)Nc1cccc(C(=O)OCc2cc(=O)n3ccsc3n2)c1 -19.9%, Cc1ccc2[nH]c(=O)c(CN(C(=O)c3cccc(Cl)c3)C(C)(C)C)cc2c1 -11.2%, CSc1ccc(Cn2nnc(C(=O)Nc3ccc(C)cc3Cl)c2N)cc1 26%, Cc1ccc(C(=O)COC(=O)C(Cc2c[nH]c3ccccc23)NC(=O)c2ccc(C(C)(C)C)cc2)cc1 (stereo not given) -16.3%, CCN(c1ccccc1)S(=O)(=O)c1ccc(-c2cc(C)no2)s1 -6.96%, CCOC(=O)C(C)Sc1nc(-c2ccccc2Cl)cc(-c2ccccc2)c1C#N (stereo not given) -11.9%, Cc1cc(C)cc(NC(=O)CSc2nc(=O)n(Cc3ccccn3)c3c2CCC3)c1 -9.06%, CC(C)CC(=O)Nc1cc(-c2ccccc2F)nn1-c1ccccc1 -14%, Cc1cccc(C)c1OCc1cc(=O)n2c3c(sc2n1)CCCC3 -21.1%, COc1ccc(-n2cc(-c3ccccc3)c3c(NC4CCCC4)ncnc32)cc1 -8.65%, Cc1cccc(Oc2nc3c(c(=O)n(C)c(=O)n3C)n2Cc2ccccc2)c1C -11.6%, COc1ccc2sc(N(Cc3cccnc3)C(=O)COc3ccccc3)nc2c1 -9.62%, COc1ccc(C(=O)Nc2nnc(C(C)C)s2)cc1OC -26.5%, COc1cc(NC(=O)Cn2c(=O)n(CC3CCCO3)c(=O)c3ccccc32)cc(OC)c1 (stereo not given) -16.9%, CCOc1ccc(CCNc2nc3ccccc3n3c(C)nnc23)cc1OCC -14.4%, Cc1cc(C)cc(NC(=O)Nc2nnc(N(C)C3CCCCC3)s2)c1 -9.38%, COc1ccccc1-c1noc(CCCC(=O)NCc2ccco2)n1 -22.4%, COc1ccccc1Cc1nc2ccccc2nc1SCC(=O)Nc1cc(Cl)ccc1OC -5.71%, Cc1ccc(NC(=O)c2cc3nc(-c4ccccc4)cc(-c4ccccc4)n3n2)cc1 -12.6%, CCCCc1nn2c(=O)cc(COC(=O)c3ccc(NC(=O)C(CC)CC)cc3)nc2s1 -16.7%, Cc1ccc(CNC(=O)c2cnn(-c3cccc(C)c3)c2C2CCN(C(=O)OC(C)(C)C)CC2)cc1 -0.906%, CC(=O)c1ccc(NS(=O)(=O)c2ccc(-c3cnc(C4CC4)o3)cc2)cc1 -3.74%, CCC1CCCCN1S(=O)(=O)c1cc(C(=O)Nc2ccc(C)c(F)c2)ccc1F (stereo not given) -11.8%, CCOCCCn1c(=N)c(C(=O)NC2CCCC2)cc2c(=O)n3cc(C)ccc3nc21 -18.4%, COc1ccc(CCNC(=O)c2ccc(Cn3c(=O)c4ccccc4n(Cc4cccc(C)c4)c3=O)cc2)cc1OC -7.94%, CCn1cnc2c(=O)oc3ccc(S(=O)(=O)Nc4ccc(OC)cc4)cc3c21 -11.3%, CCOc1ccc(NC(=O)C2CCCN(S(=O)(=O)c3c(C)noc3/C=C/N(C)C)C2)cc1 (stereo not given) -35.1%, CCOC(=O)C1=C(CN2CCN(c3ccc(OC)cc3)CC2)NC(=O)NC1c1ccc(Cl)cc1 (stereo not given) -6.51%, Cc1cc(CN2CCN(c3cccc(C)c3C)CC2)cs1 -16.1%, Fc1ccc2[nH]c(-c3cccs3)cc2c1 -16.5%, CC(C)Cn1c(=O)c2sccc2n2c(CCCC(=O)N3CCN(c4ccc(F)cc4)CC3)nnc12 -13.8%, COc1cccc(-n2c(SCC(=O)Nc3nnc(C)s3)nc3c([nH]c4ccccc43)c2=O)c1 -6.15%, CCc1ccccc1NC(=O)c1nnn(Cc2ccc(Cl)cc2)c1N -24.2%, CCOC(=O)c1c(S(=O)(=O)N2CCC(C(=O)Nc3ccc(C)cc3C)CC2)c(C)n(C)c1C -13.4%, Cc1cc(C)cc(NC(=O)c2cnc3sc(N4CCCC4)nn3c2=O)c1 -12.8%, COCCNC(=O)CSc1nc(-c2ccccc2)[nH]c1-c1ccc(OC)cc1 -21.1%, Cc1ccc(Cn2cc(C(=O)c3ccc4c(c3)OCO4)c(=O)c3cc(C)ccc32)cc1 -20.6%, COc1ccc(C)cc1NC(=O)N1CC(C)Sc2ccccc21 (stereo not given) -8.23%, Cc1ccc(-c2nc(CSc3nncn4c3cc3occc34)c(C)o2)cc1 -11.2%, NCCc1nc2cccnc2n1-c1ccccc1 -22.5%, CC(C)(C)C(O)/C=C/c1ccc2c(c1)OCO2 (stereo not given) -13.7%, O=C(Nc1cccc(C(F)(F)F)c1)c1cc2nc(-c3ccc4c(c3)OCO4)cc(C(F)(F)F)n2n1 -7.53%, CCOC(=O)N1CCC(NC(=O)c2cnn(-c3cccc(F)c3)c2-n2cccc2)CC1 -2.2%, Cc1c(Cl)cccc1NC(=O)C1CCCN(c2ncnc3onc(C)c23)C1 (stereo not given) -7.73%, CC1CCN(S(=O)(=O)c2ccc3c(c2)c(=O)c(C(=O)NC(C)c2ccccc2)cn3C)CC1 (stereo not given) -19%, CN(CC(=O)Nc1ccccc1F)S(=O)(=O)c1ccc2c(c1)c(=O)n(C)c(=O)n2C -6.87%, COc1ccc(CCC(=O)NCc2nc3cccnc3n2Cc2ccc(F)cc2)cc1 -0.481%, Cc1ccc(Cl)cc1N1CCN(C(=O)c2ccc3c(c2)CCN3S(=O)(=O)c2ccccc2)CC1 -6.06%, Cc1ccc(-c2nnc(Nc3cccc(O)c3)c3ccccc23)cc1S(=O)(=O)NCC1CCCO1 (stereo not given) -10.2%, NS(=O)(=O)c1ccc(CCNc2ncnc3c2cnn3-c2cccc(Cl)c2)cc1 -9.43%, O=C(NCc1ccccc1Cl)c1ccc2c(c1)N(Cc1ccccc1)C(=O)CS2 -11.9%, O=C(NCCc1ccccc1)C1CCN(Cc2cc3ccccc3n2Cc2cccc(Cl)c2)CC1 -5.55%, COc1ccc(CNC(=O)c2cc(=O)[nH]c3ccc(S(=O)(=O)N4CCCC4)cc23)c(OC)c1 -11.7%, O=C(NCCc1ccccc1)c1ccc2c(c1)N(Cc1ccccc1)C(=O)c1ccccc1S2(=O)=O -10.1%, CCOc1cc(C(=O)Nc2cccc3cccnc23)cc(OCC)c1OCC -10.3%, Cc1cc(NC(=O)CSc2nc(-c3ccccc3C)nc3c2c(=O)n(C)c(=O)n3C)no1 -8.33%, COc1ccc(Cl)cc1NC(=O)c1ccc2c(c1)CCN2S(C)(=O)=O 0.971%, COc1cccc(Nc2sc(C(=O)c3ccc(Cl)cc3)c(N)c2C(=O)NCc2ccc(C)cc2)c1 -24%, CCOC(=O)CN(Cc1ccccc1)C(C(=O)NC1CCCCC1)c1ccc(OC)cc1 (stereo not given) -15.6%, CC(=O)c1cccc(NC(=O)C(CC(C)C)NS(=O)(=O)c2ccc3c(c2)CCN3C(C)=O)c1 (stereo not given) -0.699%, Cc1ccc(Nc2nc3ccccc3c3nnc(C)n23)c(C)c1 -10.6%, COc1ccc(-c2cc3nc(C)c(CCC(=O)N4CCN(c5ccc(F)cc5)CC4)c(C)n3n2)c(OC)c1 -39.2%

Potency, inactive:
CC[C@]1(O)C[C@@H]2CN(CCc3c([nH]c4ccccc34)[C@@](C(=O)OC)(c3cc4c(cc3OC)N(C)[C@H]3[C@@](O)(C(=O)OC)[C@H](OC(C)=O)[C@]5(CC)C=CCN6CC[C@]43[C@@H]65)C2)C1
